Results: PubChem BioAssay AID1362 (SRMLSC, 2008)
The other results are listed elsewhere or left out. Shown are side measurements of this screen, not its main read-out; they come without a call. Compounds called inactive in the main read-out are mostly missing here.

Test: growth inhibition of WT strain, primary screen, mitochondrial fusion inhibitor project, WT and mutant strains, chemical genetic (AID 1362); further: tested in S. cerevisiae
Conditions: mitochondrial fusion phenotypic screen, at 10 µM
With `CCOc1ccc(-n2cc(-c3ccccc3)c3c(N4CCOCC4)ncnc32)cc1` the inhibition was 39.4%.
With `O=C(N/N=C/c1cn(-c2cccs2)nc1-c1ccccc1)c1ccccc1O` the inhibition was 44.5%.
`Cc1ccc(NC(=O)C2C(c3ccccc3)C2(Cl)Cl)c(C)c1` (centres undefined) showed an inhibition of 61.5%.
Molecule `O=C(COC(=O)c1ccccc1Cc1ccccc1)Nc1ccc(SC(F)F)cc1` has an inhibition of 2.37%.
For `O=[N+]([O-])c1c(C(Cl)Cl)nn(-c2ccc(Cl)cc2)c1N1CCCCC1`, the inhibition was 44%.
Work on `CCCCN(C)C(=S)Nc1ccc(Oc2ccccc2)cc1` yielded an inhibition of 37.2%.
Work on `O=C(CNC(=S)N(Cc1ccccc1)Cc1ccccc1F)NCc1ccc(Cl)cc1` yielded an inhibition of 17.7%.
In the case of `C=CCC1(C#N)C(SC)=NC2=C(C(=O)CC(C)(C)C2)C1c1ccc(Br)cc1` (centres undefined), the inhibition is reported as 24.6%.
Work on `CC(/C=N/n1c(-c2ccco2)n[nH]c1=S)=C\c1ccccc1` yielded an inhibition of 44.2%.
`Cc1ccc(SCCNC(=S)Nc2cc(C)cc(C)c2)cc1` gave an inhibition of 63.9%.
Work on `CCCc1cc(-c2n[nH]c(=S)n2C(C)c2ccccc2)cs1` (centres undefined) yielded an inhibition of 14.7%.
Molecule `CCSC1=NC(C)(C)C=C(/C=C/c2ccc(Cl)cc2Cl)N1` has an inhibition of 31.9%.
`FC(F)(F)c1nc(N2CCCC2)ncc1-c1nnnn1-c1ccc(Cl)cc1` gave an inhibition of 26.8%.
For `CCCNC(=S)Nc1ccc2nc(-c3ccccn3)c(-c3ccccn3)nc2c1`, the inhibition was 5.34%.
`Cc1nn(-c2ccccc2)c(C)c1NC(=O)c1ccc(S(=O)(=O)N2CCCC2)cc1` gave an inhibition of -6.28%.
In the case of `CCN1c2ccccc2-c2nc3ccccc3n2C1c1cccs1` (centres undefined), the inhibition is reported as 44.9%.
With `COc1cc2c(cc1NC(=O)CSc1nc3ccccc3[nH]1)oc1ccccc12` the inhibition was 14%.
In the case of `c1ccc(-c2noc(-c3cccc4ccccc34)n2)cc1`, the inhibition is reported as 61.1%.
In the case of `CCC1(C)OCC(Cn2c3ccccc3c3ccccc32)O1` (centres undefined), the inhibition is reported as 47.1%.
For `CCCc1ccc(-c2cc(C(=O)N/N=C/c3ccc([N+](=O)[O-])o3)c3ccccc3n2)cc1`, the inhibition was 60%.
With `CCOC(=O)c1c(N)sc(C(O)(C(F)(F)F)C(F)(F)F)c1-c1ccc(Cl)cc1` the inhibition was 89.3%.
With `CC(=O)N1N=C(c2ccc(C)cc2)OC1c1ccc(C(C)C)cc1` (centres undefined) the inhibition was 45.9%.
Molecule `CC(C)C(=O)Nc1cc(S(=O)(=O)Nc2ccc(Cl)cc2)ccc1Cl` has an inhibition of 19.7%.
With `CCC(=C(c1ccc(OC)cc1)c1ccc(OC)cc1)c1cn(CC(O)CN(CCO)CCO)c2ccccc12` (centres undefined) the inhibition was 95.4%.
Work on `Cc1ccc(CNC(=O)c2ccc(Cn3nc(C)c(Cl)c3C)o2)cc1` yielded an inhibition of 63.2%.
With `N=c1ccn(CC(=O)c2ccc(-c3ccccc3)cc2)cc1` the inhibition was 63.9%.
For `CCCn1c(/C=N/Nc2nc3ccccc3[nH]2)nc2ccccc21`, the inhibition was 49.5%.
For `Cc1cc(Cl)ccc1OCc1n[nH]c(=S)n1C1CCCCC1`, the inhibition was 70%.
Work on `Cc1cc(C)c(S(=O)(=O)Nc2ccc3c(c2)CCC3)c(C)c1` yielded an inhibition of 62.8%.
In the case of `Cc1ccc(C)c(NC(=S)NCCc2ccc(F)cc2)c1`, the inhibition is reported as 35%.
Work on `Cc1nc(NC(=O)COC(=O)CCS(=O)(=O)c2ccccc2Cl)c(Cl)cc1Cl` yielded an inhibition of 30.8%.
`O=C(Nc1cccc(Cl)c1)c1csc(-c2ccccc2)n1` gave an inhibition of 37.2%.
`CCOC(=O)C(=NC1CCS(=O)(=O)C1)NNc1ccc(Br)cc1` (centres undefined) gave an inhibition of 52.1%.
Work on `CCc1ccccc1N(CC)C(=O)CCc1nc(-c2ccc(C)cc2)no1` yielded an inhibition of 22.1%.
With `COC(=O)CNC(=O)CNC(=O)c1nn(-c2ccc(OC)c(Cl)c2)c(=O)c2ccccc12` the inhibition was 5.52%.
`CC(C1CC2CCC1C2)n1c(-c2ccco2)n[nH]c1=S` (centres undefined) showed an inhibition of 36.7%.
Molecule `CN(Cc1ccc(F)cc1)C(=O)COc1ccccc1-c1ccccc1` has an inhibition of 21.1%.
In the case of `Cc1ccc(C)c(Nc2ncccc2C(=O)NCc2cccs2)c1`, the inhibition is reported as 21.7%.
Molecule `NC(=O)c1ccsc1NC(=O)c1ccc2c(c1)CCCC2` has an inhibition of 69.5%.
With `CCOC(=O)c1sc(/N=C/c2c(C)[nH]n(-c3ccccc3)c2=O)c(C#N)c1C` the inhibition was 8.93%.
`O=[N+]([O-])c1cc([N+](=O)[O-])c(N2CCCCCC2)cc1NCCO` gave an inhibition of 42.8%.
`CCOC(=O)c1c(-c2ccc(C)cc2)csc1NC(=O)C1CCCO1` (centres undefined) gave an inhibition of 6.27%.
Molecule `CC(C)(C)SCCNC(=O)c1ccc(Cl)c([N+](=O)[O-])c1` has an inhibition of 57.2%.
In the case of `COc1ccc(C2SCC(=O)N2CC23CC4CC(CC(C4)C2)C3)cc1` (centres undefined), the inhibition is reported as 40.7%.
`O=C(c1ccc(COc2ccc(Cl)cc2)o1)N1CCN(Cc2ccc3c(c2)OCO3)CC1` gave an inhibition of 58%.
For `Cc1ccc2nc(-c3ccccc3)c(-c3ccccc3)nc2c1`, the inhibition was 42.9%.
In the case of `CN(CCCC(=O)NCc1ccco1)S(=O)(=O)c1ccccc1`, the inhibition is reported as 13.4%.
`Cc1ccc(NC(=S)NCCSc2ccc(Cl)cc2)c(C)c1` showed an inhibition of 39.6%.
`CCOC(=O)C1CCCN(C(=O)CS(=O)(=O)Cc2ccccc2)C1` (centres undefined) showed an inhibition of -16.8%.
`CCOc1ccc(-n2cc(C(=O)c3cc(Cl)ccc3O)cc(C#N)c2=O)cc1` showed an inhibition of 31.8%.
With `CCCCN1C2=C(C(=O)CCC2)C(c2ccc(Cl)c(Cl)c2)C2=C1c1ccccc1C2=O` (centres undefined) the inhibition was 35.6%.
In the case of `COC(=O)C1CSc2[nH]c(=O)sc2C1c1ccc(OC)c(OC)c1` (centres undefined), the inhibition is reported as 16.2%.
For `CN(C(=S)Nc1ccc(Oc2ccccc2)cc1)C1CCCCC1`, the inhibition was 53.9%.
Work on `Cc1cc(C)cc(NC(=S)Nc2cccc3cnccc23)c1` yielded an inhibition of 0.75%.
Work on `CC(C)(C)c1cc(OC(=O)c2ccccc2F)ccc1O` yielded an inhibition of 29.9%.
With `CCN1CCc2c(sc(NC(=O)Nc3ccc(Cl)c(Cl)c3)c2C(N)=O)C1` the inhibition was 29.4%.
Work on `O=C(NC(=S)Nc1ccccc1N1CCCCC1)c1ccco1` yielded an inhibition of 22.6%.
`CCOC(=O)COc1ccccc1/C=C\[N+](=O)[O-]` gave an inhibition of 37.9%.
Molecule `Cc1ccc(-c2cc(C(=O)N3N=C(C(F)F)CC3(O)C(F)F)c3ccccc3n2)cc1C` (centres undefined) has an inhibition of 86.3%.
`O=C(NCC1CCCO1)C1CCC(=O)N1Cc1ccccc1Cl` (centres undefined) showed an inhibition of 10.2%.
`CC(C)N(Cc1nc(-c2ccccc2)no1)C(=O)C(Cl)(Cl)Cl` gave an inhibition of 43.5%.
For `O=C1C=C(Nc2ccc(Cl)cc2)CC(c2ccc(Cl)cc2)C1` (centres undefined), the inhibition was 38%.
Work on `N#C/C(=C\Nc1ccccc1O)c1nc2ccccc2o1` yielded an inhibition of 29.2%.
Work on `Cc1ccc(Oc2cc([N+](=O)[O-])cc3c2C(=O)Nc2ccccc2O3)cc1` yielded an inhibition of 20.2%.
`Cc1cc(C)c(OCC(=O)Nc2nnc(-c3ccco3)o2)c(C)c1` showed an inhibition of 4.48%.
Work on `O=C(O)CCc1ccc(-c2ccc(F)cc2)n1Cc1ccco1` yielded an inhibition of 3.57%.
`Cc1ccc2nc(NC(=O)C3CCCN(S(=O)(=O)c4cccc5nsnc45)C3)sc2c1` (centres undefined) gave an inhibition of 27.9%.
`CCn1ccnc1CN1CCc2c([nH]c3ccccc23)C1C1CCCCC1` (centres undefined) gave an inhibition of 13.4%.
`CCn1c(C(=O)N2CCc3ccccc3C2)cc2oc3ccccc3c21` gave an inhibition of 26.8%.
